According to PubChem BioAssay AID1508623 (National Center for Advancing Translational Sciences (NCATS), 2021):
Screen size: about 48,000 compounds; about 450 (0.94%) were called active. Roughly 19% stayed inconclusive and do not appear here. Calls follow the shape of the dose curve; as a rule, active = well fitted inhibition curve with a large enough effect; inconclusive = small, poorly fitted or top-dose-only effect; inactive = no such curve, though single readings can be large or run the other way. This is one part of the list.

Assay: Primary qHTS for Identification of Small Molecule Inhibitors of Huntingtin Promoter Activity; also: nearly all actives have a fitted effect of over 50% in size
Conditions: HEK293 HTT promoter firefly luciferase reporter (activity 0% = vehicle and -100% = no light), 24 h; series mostly up to 57.5 µM; activity change, negative = inhibition: at the top concentration
How it was run: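 HEK293 luciferase promoter-reporter cells (2,500/well) plated 24 h, then compounds added at up to 57.5 uM final for 24 h at 37 °C. Firefly luminescence by Dual-Glo, normalized to vehicle (0%) and zero RLU (-100%).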

Activity change, negative = inhibition, inactive:
CCOc1ccc(NC(=O)C2(c3cccs3)CCOCC2)cc1 -3.27%
Cc1cc(C)c2sc(NC(=O)c3ccc(S(=O)(=O)N4CCCC4)cc3)nc2c1 -15.5%
CCOC(=O)c1cccc(NC(=O)CCc2nc3cccnc3n2-c2ccccc2)c1 -30.5%
CNC(=O)Oc1ccc2c(c1)[C@]1(C)CCN(C)[C@@H]1N2C 11.4%
COc1ccccc1C(=O)Nc1nc2nc(C)cc(=O)n2[nH]1 -0.789%
O=C(CN1C(=O)COc2ccc(S(=O)(=O)NC3CCCC3)cc21)Nc1ccc(Cl)cc1F -18.2%
O=C(O)CSCC(=O)NC1CCSC1=O (centres undefined)
CCOC(=O)c1c(C)[nH]c(CCC(=O)Nc2cc(Cl)ccc2OC)c1C -29.8%
Cc1nc(N2CCOCC2)c2c(C(=O)NCc3ccc(Cl)cc3)c(C)oc2n1 1.24%
CCc1ccc(NC(=O)c2nc3nc(C)cc(C(F)F)n3n2)cc1 32%
CN(C)S(=O)(=O)N(CC(=O)Nc1ccc(C(F)(F)F)cc1)c1ccccc1 -27.7%
Cc1ccc(OCCSc2nc3ccc(NC(=O)c4cccs4)cc3s2)cc1 -17.6%
COc1cc(OC)cc(C(=O)NCCc2csc3nc(-c4ccccc4F)nn23)c1 -7.68%
COc1cccc(CNC(=O)c2cc(-c3ccc(Cl)cc3)n[nH]2)c1 10.2%
CCC(CC)c1nn2c(=O)cc(COc3ccc(NC(=O)c4cccc(C)c4)cc3)nc2s1 -7.14%
O=C(CCC(=O)N1CCSc2ccccc21)Nc1ccc(Cl)cc1 -15.5%
CCOc1cccc(C(=O)N(Cc2ccc(C)o2)C2CCS(=O)(=O)C2)c1 (centres undefined) -13.5%
COc1ccc(CNC(=O)c2ccc3c(c2)N(Cc2cc(C)ccc2C)C(=O)CS3)cc1 -15.7%
COc1ccccc1CNS(=O)(=O)c1cc(Br)cc2c1N(C(=O)C1CC1)CC2 -12.4%
COc1ccc(CNc2nc(-c3ccc(Cl)cc3)nn2S(=O)(=O)c2ccc(C)cc2)cc1 -15.6%
O=c1cc(COc2ccc(Cl)cc2Cl)nc2scc(-c3ccccc3)n12 -6.07%
COc1ccccc1OCC(=O)N(Cc1ccco1)Cc1ccccc1F -28.1%
CC(CNC(=O)c1ccc2c(c1)nc1n2CCCCC1)c1ccccc1 (centres undefined) 9.51%
CCOc1ccc(CC(=O)NC2CC(=O)N(c3cccc(F)c3)C2)cc1 (centres undefined) 0.84%
COc1ccccc1-c1nn2c(=O)cc(CN3CCN(C(=O)Nc4ccc(C)cc4Cl)CC3)nc2s1 -4.71%
CCOc1ccc(-n2c(=O)c3c(C)c(C)sc3n(CC(=O)C(C)(C)C)c2=O)cc1 -8.24%
Cc1ccc(-n2c(=O)c3c(c4cc(C)ccc4n3C)n(CC(=O)Nc3ccc(F)cc3)c2=O)cc1 -20.1%
CC(=O)c1ccc(N2CCN(C(=O)c3cn(C)c(=O)c4c3c3ccccc3n4C)CC2)cc1 19%
COc1ccc(CNC(=O)COCc2cc(-c3ccc4c(c3)OCO4)on2)cc1 -26%
COc1cc(C(=O)NCC(c2ccco2)S(=O)(=O)c2cccs2)cc(OC)c1OC (centres undefined) -22.9%
CCCCC(=O)Nc1nnc(S(=O)(=O)N(C)Cc2ccc(Cl)cc2)s1 6.78%
COCCCNc1nc2c(c(=O)n(Cc3ccc(F)cc3)c(=O)n2C)n1C -9.47%
Cc1cc(C)cc(NC(=O)CCc2c(C)nc3nc(CNC(=O)c4cccc(F)c4)nn3c2C)c1 16.6%
COc1ccc(OC)c(S(=O)(=O)NCC(c2ccc(N(C)C)cc2)N2CCOCC2)c1 (centres undefined) -3.94%
O=C(NCC(c1ccco1)S(=O)(=O)c1cccs1)c1ccccc1 (centres undefined) -8.48%
COc1ccc(N2CCN(S(=O)(=O)c3ccc(CC(C)C)cc3)CC2)cc1 -18.6%
COC(=O)c1cc2oc3ccccc3c2n1Cc1ccc(C)cc1 -17.9%
Cc1c(Cl)cccc1Nc1nn2c(=O)c3ccccc3nc2s1 12.1%
CCOC(=O)c1cc2c(=O)n3ccccc3nc2n(Cc2ccco2)c1=NC(=O)c1ccccc1Br -21.6%
CCOc1ccc(NC(=O)Cn2c(=O)n(CCCC(=O)NCCc3ccc(Cl)cc3)c(=O)c3ccccc32)cc1 -14.8%
Cc1ccc(Cn2c(SCC(=O)NCc3ccccc3)nc3ccsc3c2=O)cc1 -3.61%
Cc1ccccc1-c1noc(-c2ccc(NCC3CCCO3)c([N+](=O)[O-])c2)n1 (centres undefined) 16.9%
Cc1oc(-c2ccccc2F)nc1CS(=O)(=O)CC(=O)N1CCN(c2ccccc2)CC1 -21%
COc1ccc(-c2[nH]c(-c3ccc(O)cc3)nc2-c2ccccc2)cc1 -20.5%
Cc1ccc([N+](=O)[O-])cc1NC(=O)CN(c1ccccc1)S(=O)(=O)N(C)C -15.3%
O=C1CCCc2cc(S(=O)(=O)N3CCCC(C(=O)NCc4ccccc4)C3)ccc2N1 (centres undefined) -31.3%
CC(=O)c1cccc(NC(=O)c2nc(-c3ccccc3)n(-c3ccccc3)n2)c1 -9%
COc1cc2c(cc1OC)n(Cc1cccc(C(F)(F)F)c1)c(=O)n1nc(-c3ccccc3)nc21 -14.6%
O=C(Oc1cccc2cccnc12)c1ccccc1 -34.2%
COc1cccc(NC(=O)CCNS(=O)(=O)c2ccc3c(c2)oc(=O)n3C)c1 -13%
CCOC(=O)[C@H](CCc1ccccc1)N[C@@H](C)C(=O)N1Cc2cc(OC)c(OC)cc2C[C@H]1C(=O)O 0.885%
CCOc1ccc(NS(=O)(=O)c2cc3c(cc2Cl)NC(=O)CO3)cc1 -7.01%
Cc1cc(C)c(NC(=O)CCS(=O)(=O)c2cc3c(cc2Cl)NC(=O)CO3)c(C)c1 -11.2%
O=C(CSCn1nnc2c(=O)[nH]c(Cc3ccc(F)cc3)nc21)Nc1cccc(C(F)(F)F)c1 -14.5%
CN1CCC(OC(c2ccccc2)c2ccccc2)CC1 0.638%
CC(=O)Nc1ccc(NC(=O)CCCn2nc(C)c3sc4ccccc4c3c2=O)cc1 4.1%
COc1cc2c(cc1OC)C(COc1cccc(C(F)(F)F)c1)N(C(=O)c1ccc(S(=O)(=O)N3CCCC3)cc1)CC2 (centres undefined) -22.8%
CCn1cc(C(=O)N2CCN(c3ccc(C)cc3)C(C)C2)c(=O)c2cc(S(=O)(=O)N3CCCC3)ccc21 (centres undefined) 55.9% [at 11.5 µM]
CCC(C)NC(=O)C1CCN(S(=O)(=O)c2ccc3c(c2)CCCN3C(C)=O)CC1 (centres undefined) -8.55%
CCc1ccccc1NC(=O)C(=O)NCCCN1CCOCC1 -7.38%
CNC(=O)CCCN1C(=O)c2cccnc2Sc2ccccc21 -8.02%
Cc1nc2ccc(S(=O)(=O)N(CC(=O)Nc3ccc(F)cc3F)Cc3ccccc3)cc2s1 -26.9%
CCOc1ccc(NC(=O)c2ccc3[nH]c(C)c(C)c3c2)cc1 1.31%
O=C(Cn1c(SCc2ccccc2F)nc2ccncc21)Nc1ccccc1C(F)(F)F 5.36%
Cc1ccc(S(=O)(=O)Nc2cccc(-c3cn4cccc(C)c4n3)c2)c(C)c1 -24.6%
O=C(Cn1c(=O)c2cccn2c2cccnc21)NCc1cccc(F)c1 1.88%
CN(C)C(=O)Oc1cccc([N+](C)(C)C)c1 15.9%
CCCCN(C)C(=O)c1cn(C)c2ccc(S(=O)(=O)N3CCC(C)CC3)cc2c1=O -9.83%
COc1ccccc1NC(=O)Cn1c(=O)n(Cc2ccccc2)c(=O)c2c1c1cc(C)ccc1n2C -4.42%
CC(NC(=O)CSc1n[nH]c(-c2ccccc2Cl)n1)c1nc2ccccc2[nH]1 (centres undefined) 0.426%
Cc1ccsc1CN1CCc2nc(Nc3ccccc3)ncc2C1 30.1%
O=C(c1cnn(-c2ccc(F)cc2)c1-n1cccc1)N1CCN(c2ccc(F)cc2)CC1 -26.1%
CC1=C(C(=O)Nc2cccc(Cl)c2C)C2(CCCCCC2)OC1=O -17.4%
CC1CCN(S(=O)(=O)c2ccc3c(c2)CCN3)CC1 -22.3%
O=c1[nH]cnc2[nH]ncc12
CCc1ccc(S(=O)(=O)c2nnn3c2nc(Nc2cc(OC)ccc2OC)c2sccc23)cc1 -2.2%
COc1ccccc1Nc1sc(C(=O)c2ccc(C)cc2C)c(N)c1S(=O)(=O)c1ccccc1 -21.4%
O=S(=O)(NCCS(=O)(=O)N1CCN(c2ccccc2)CC1)c1ccc(Br)cc1 -16.3%
Cc1c(C(=O)Nc2nc(-c3ccc(F)cc3)ns2)oc2ccc(Cl)cc12 -2.25%
Cc1ccc(CCNC(=O)CS(=O)Cc2nc(-c3ccccc3Cl)oc2C)cc1 (centres undefined) -8.29%
O=C(Cc1ccccc1)Nc1sc2c(c1C(=O)Nc1ccc(Br)cc1)CCC2 -15.5%
Cc1ccc2oc(C(=O)Nc3cccc(Cl)c3)cc(=O)c2c1 -13.8% [at 11.5 µM]
COc1ccccc1C(=O)Nc1ccccc1OCc1cc(=O)n2ccccc2n1 -0.441%
O=C(CS)Nc1ccccc1 -21.6%
C/C=C1\[C@H]2C=C(C)C[C@]1(N)c1ccc(=O)[nH]c1C2 4.1%
COc1cccc(N2CC(NC(=O)c3ccc(S(=O)(=O)N4CCOCC4)cc3)CC2=O)c1 (centres undefined) -28.1%
COc1ccc(CNc2nc3c(-c4ccccc4)nnn3c3ccccc23)cc1 -15.9%
Cc1cc(C)cc(OCC(=O)Nc2c(C)ccc3nsnc23)c1 -16.7%
Cc1ccccc1NC(=O)CSc1nc2nccnc2c(=O)n1CCc1c[nH]c2ccccc12 -1.66%
Cc1cccc(N2CCN(C(=O)Cn3nc(C)n4cccc4c3=O)CC2C)c1 (centres undefined) 12.4%
CCCCN(C)CCCNC(=O)Cn1ncc2c3ccccc3n(Cc3ccccc3)c2c1=O 21.6%
Cc1cccc(NC(=O)CSc2nccn2Cc2ccc(F)cc2)c1C -21.6%
Cc1ccc(C(=O)Nc2cc3c(cc2C)n(C)c(=O)c(=O)n3C)cc1 3.58%
Cc1cc(O)c2c(c1)C(=O)c1cc(O)cc(O)c1C2=O 4.01%
Cc1ccccc1NC(=O)c1ccc2c(c1)c(C)c(C)n2Cc1ccccc1 -24.6%
COCc1nc2ccccc2n1CCOc1cccc(C)c1 -13.8%
COc1ccc(S(=O)(=O)N2CCCN(CC(=O)Nc3ccc(NC(C)=O)cc3)CC2)cc1 -2.17%
COc1ccccc1NC(=O)CSC1=Nc2ccccc2C2=NC(CC(=O)NCc3ccco3)C(=O)N12 (centres undefined) 62.1%
Cc1ccc(NC(=O)CN2C(=O)CCc3cc(S(=O)(=O)N4CCOCC4)ccc32)cc1F -24%
